Out of some 52,000 compounds screened, about 4,300 (8.3%) were called active. No stated cut-off is given here; in the data, active means survival mostly below about 52% (no sharp cut-off); inactive means mostly above about 56%. The list shows a part of the results.
System: DeltatarO mutant
Experiment: S. aureus survival, RN4220 and DeltatarO strains – OD600, teichoic acid synthesis inhibitors, primary screen (AID 463173)
Details: S. aureus RN4220 wild type/DeltatarO growth, OD600, 18 h, active compounds read low, screened at 18.75 µg/mL (by protocol)

Row | Compound | survival
1 | Cc1ccc(S(=O)(=O)NCc2ccc(/C=C(/C#N)C(=O)NCc3ccccc3)o2)cc1 | inactive: 69%
2 | CN(Cc1ccccc1)C(=O)CSc1nc2ccsc2c(=O)n1-c1ccc(F)cc1 | inactive: 109%
3 | COc1cccc(NS(=O)(=O)c2ccc3[nH]cc(C(=O)NCCc4ccccc4)c(=O)c3c2)c1 | inactive: 83%
4 | Cc1ccc2oc(=O)c3cnn(CC(=O)N4CCN(c5cc(Cl)ccc5C)CC4)c3c2c1 | inactive: 77%
5 | COc1cccc(CNc2nc3c(-c4ccccc4)nnn3c3ccccc23)c1 | inactive: 84%
6 | CCOc1ccc(NC(=O)c2cc(S(=O)(=O)N3CCCCC3)c[nH]2)cc1 | inactive: 107%
7 | CCC(=O)N1CCc2cc(Br)cc(S(=O)(=O)CCC(=O)Nc3ccc(C)c(C)c3)c21 | inactive: 55%
8 | COc1ccc(-c2noc(-c3ccc(NCc4cccnc4)c([N+](=O)[O-])c3)n2)cc1 | inactive: 56%
9 | O=C(NCc1ccccc1Cl)c1cnc2sc(N3CCOCC3)nn2c1=O | inactive: 71%
10 | COc1ccc(NC(=O)CCc2nnc3n(C)c(=O)c4sccc4n23)cc1Cl | inactive: 78%
11 | CCn1cc(C(=O)NCCCN(CC(C)C)CC(C)C)c(=O)c2cc(S(=O)(=O)N(C)C3CCCCC3)ccc21 | inactive: 85%
12 | COc1cccc(N2C(=O)N(Cc3ccc(C#N)cc3)c3ccccc3S2(=O)=O)c1 | inactive: 89%
13 | O=S(=O)(c1ccccc1F)N1CCC(Oc2ccc(-n3cnnn3)cc2)CC1 | inactive: 72%
14 | CCc1ccccc1NC(=O)Cn1c(=O)n(CC2CCC(C(=O)NCCc3ccccc3)CC2)c(=O)c2ccccc21 (stereo not drawn) | inactive: 78%
15 | CCS(=O)(=O)N1CCC(n2c(C)nc3cccnc32)CC1 | inactive: 75%
16 | Cc1ccc(Cl)c(NC(=O)Nc2csc3c2CCCC3)c1 | inactive: 77%
17 | CN1C(=O)c2ccccc2Sc2ccc(NC(=O)COc3ccccc3)cc21 | inactive: 75%
18 | Cc1ccccc1OCc1nnc(SCC(=O)N(C)C)n1-c1ccccc1 | inactive: 93%
19 | COc1cc2oc(=O)c(CC(=O)N3CCCCC3)c(C)c2cc1OC | inactive: 51%
20 | COc1ccc(C2=NS(=O)(=O)N(C)C(C(=O)NCc3ccccc3)=C2)cc1OC | inactive: 100%
21 | COc1ccc(-c2cc(C(=O)Nc3ccn(Cc4ccc(C)cc4)n3)no2)cc1OC | inactive: 57%
22 | CCc1ccc(NC(=O)C(=O)NCC(c2ccc3c(c2)OCO3)N2CCOCC2)cc1 (stereo not drawn) | inactive: 83%

Row | Compound | survival
23 | Cc1ccc(S(=O)(=O)c2nc(-c3ccccc3Cl)oc2N2CCCCCC2)cc1 | active: 25%
24 | Cc1ccc(C)c(CSc2cn(CC(=O)N3CCCCCC3)c3ccccc23)c1 | inactive: 86%
25 | COc1ccc(NC(=O)CCCc2nnc3n(CCC(C)C)c(=O)c4sccc4n23)c(OC)c1 | inactive: 95%
26 | COc1ccc(-c2csc3nc(-c4ccc(F)cc4)oc(=O)c23)cc1 | inactive: 61%
27 | COc1ccc(C(=O)/C=C/c2cn(CC(O)CN(CC(C)C)CC(C)C)c3ccccc23)cc1 (stereo not drawn) | inactive: 58%
28 | CCOC(=O)c1nc(N2CCN(c3ccc(F)cc3)CC2)c2c(C)noc2n1 | inactive: 55%
29 | CCn1c(=O)n(-c2ccc(F)c(Cl)c2)c(=O)c2c3c(sc21)CN(C(C)=O)CC3 | inactive: 129%
30 | COc1cccc(C(=O)Nc2ccc(-c3nc4ccccc4s3)cc2Cl)c1 | inactive: 72%
31 | Cc1cc(C)cc(-n2ccnc2SCC(=O)Nc2nc3ccccc3s2)c1 | inactive: 71%
32 | COc1ccc(-c2nc3sc(CCNC(=O)c4cccc(C(F)(F)F)c4)c(C)n3n2)cc1 | inactive: 75%
33 | CCOc1ccc(C2c3[nH]c4ccccc4c3CCN2C(=O)Cc2cccc(OCC)c2OCC)cc1 (stereo not drawn) | inactive: 125%
34 | Cc1ccccc1Cn1nnc2c(=O)[nH]c(C3CCN(C(=O)c4ccccc4)CC3)nc21 | active: 17%
35 | CCOC(=O)c1cnc2ccc(C(=O)OC)cc2c1Nc1ccccc1CC | active: -3%
36 | CSc1ncc(C(=O)NCc2ccccc2)c(-c2ccccc2)n1 | active: 37%
37 | COc1ccc(NC(=O)C2CCCN2S(=O)(=O)c2cccc3cccnc23)cc1OC (stereo not drawn) | inactive: 87%
38 | CC(C)(C)n1cnc2cc(NCc3ccccc3Cl)ccc21 | active: 7%
39 | CC(C)Oc1ccc(CNC(=O)c2ccc(NC(=O)N3CCSc4ncccc43)cc2)cc1 | active: 6%
40 | CCC(C(=O)NCc1ccccc1OC)n1nc(C)n2c(cc3sccc32)c1=O (stereo not drawn) | inactive: 82%
41 | Cc1[nH]c2ccc(S(N)(=O)=O)cc2c1C | inactive: 88%
42 | Cc1n[nH]c(C)c1S(=O)(=O)N1CCCC(C(=O)Nc2ccc(Cl)cc2)C1 (stereo not drawn) | inactive: 131%
43 | Cc1ccc(C)c(N2CCN(C(=O)Cn3c(-c4cccs4)cc4ccccc43)CC2)c1 | inactive: 71%
44 | CCN(C(=O)Cn1cc(S(=O)(=O)Cc2ccccc2Cl)c2ccccc21)c1ccccc1 | inactive: 69%

Row | Compound | survival
45 | Cc1ccc(N2CCN(C(=O)c3c4c(nc5ccccc35)C(=O)N(C3CCCCC3)C4)CC2)c(C)c1 | inactive: 69%
46 | COc1ccc(C(=O)Nc2nc3c(s2)CCc2cc(OC)ccc2-3)cc1 | active: 35%
47 | COCCCn1c(SCC(=O)NCc2ccccc2)nc2c(sc3ccccc32)c1=O | inactive: 82%
48 | CN(C)c1ccc(CNC(=O)C2CCN(S(=O)(=O)c3ccc4c(ccn4C)c3)CC2)cc1 | inactive: 95%
49 | Cc1ccc(C)c(Nc2nn3c(=O)c4ccc(C(=O)NCCc5ccccc5)cc4nc3s2)c1 | inactive: 82%
50 | CCc1ccccc1N(C)C(=O)c1cnc(N2CCOCC2)c2ccccc12 | inactive: 91%
51 | Cc1cccc(C(=O)N2CCc3cc(CNC(=O)Cc4ccc(F)cc4)ccc32)c1 | inactive: 72%
52 | Cc1cc(Br)ccc1NC(=O)c1cn(C2CCCC2)c(=O)c2c1c1ccccc1n2C | inactive: 73%
53 | Cc1ccc(Cc2nc3ccccc3nc2SCC(=O)NCc2ccc(F)cc2)cc1 | inactive: 74%
54 | COc1ccc(CCNc2ncnc3c2c(-c2ccccc2)cn3-c2ccc(F)cc2)cc1OC | inactive: 85%
55 | CCNc1nc(Cl)nc(N(C)C#N)n1 | inactive: 96%
56 | CCC(=O)C1=C(c2cccc([N+](=O)[O-])c2)N(C(=O)CC)n2c(nnc2-c2ccccc2)S1 | active: 8%
57 | Cc1ccc(-n2ncc3c(N4CCN(CCO)CC4)ncnc32)cc1Cl | inactive: 101%
58 | CCCCNc1nc(Oc2ccc(OCC(N)=O)nn2)nc(N2CCOCC2)n1 | inactive: 108%
59 | CCOc1cc(C2c3c(oc4ccc(F)cc4c3=O)C(=O)N2Cc2ccco2)ccc1O (stereo not drawn) | inactive: 90%
60 | Cc1ccc(S(=O)(=O)c2c(F)c(F)c(S(=O)(=O)c3ccc(C)cc3)c(F)c2F)cc1 | inactive: 79%
61 | Cc1ccc(-n2c(SCC(=O)Nc3ccc4c(c3)OCO4)nc3c([nH]c4ccccc43)c2=O)cc1 | inactive: 128%
62 | Cc1ccc(-c2cc(C(=O)NCc3cnn(C)c3)c3cc(Br)ccc3n2)cc1 | inactive: 51%
63 | Cc1[nH]c2ccccc2c1/C=N\NC(=O)Cn1nnc(-c2ccccc2)n1 | inactive: 64%
64 | O=C(NCCc1ccccc1)c1ccc2c(c1)CCN2S(=O)(=O)c1ccc(Br)cc1 | inactive: 67%
65 | CCOc1ccc(C(=O)Nc2nnc(S(=O)(=O)N(CC)c3ccccc3C)s2)cc1 | active: 44%
66 | CC(=O)c1cccc(NC(=O)CCCN2C(=O)COc3ccc(C)cc32)c1 | inactive: 139%

Row | Compound | survival
67 | CCC(=O)N1CCCc2cc(S(=O)(=O)N3CCC(C(=O)Nc4ccc(F)c(F)c4)CC3)ccc21 | inactive: 116%
68 | CCNc1nc2c(c(=O)[nH]c(=O)n2C)n1CC(O)COc1ccc(Cl)cc1Cl (stereo not drawn) | inactive: 180%
69 | COc1ccc(N2CC(c3nc(-c4cc(OC)c(OC)c(OC)c4)no3)CC2=O)cc1Cl (stereo not drawn) | inactive: 118%
70 | O=C(CCS(=O)(=O)c1cccs1)Nc1ccc(C(=O)Nc2cccc(Cl)c2)cc1 | inactive: 49%
71 | Cc1ccc(C)c(NC(=O)CN2C(=O)CSc3nc(C)cc(C)c32)c1 | inactive: 103%
72 | COc1ccc(CNc2ccc3cc(S(=O)(=O)N4CCCCC4)ccc3n2)cc1 | inactive: 79%
73 | CC1CCN(C(=O)CN2CCSc3ccccc32)CC1 | inactive: 90%
74 | CCN(CC)c1ccc(C(=O)NCCN)cc1 | inactive: 115%
75 | O=C(Nc1ccc(SC(F)F)cc1)c1cc(-c2cccs2)on1 | inactive: 92%
76 | COC(=O)c1sc2cccc(F)c2c1S(=O)(=O)N1CCN(c2ccccc2OC)CC1 | inactive: 60%
77 | COc1ccc(OC)c(NC(=O)CSc2nc(-c3ccccc3C)nc3cc(=O)[nH]n23)c1 | inactive: 67%
78 | Cc1ccc(CNC(=O)CN(c2ccc(C(C)C)cc2)S(=O)(=O)c2c(C)n[nH]c2C)cc1 | active: 43%
79 | COc1cccc(NC(=O)CN2CCCN(S(=O)(=O)c3ccc(Br)cc3)CC2)c1 | inactive: 58%
80 | COc1ccc(Cn2ccnc2SCC(=O)Nc2ccc(C)cc2C)cc1 | inactive: 83%
81 | CC(C)(C)CC(=O)Nc1nnc2n1CCS2 | inactive: 83%
82 | CCCC(=O)NCC(c1ccc2c(c1)OCO2)N1CCOCC1 (stereo not drawn) | inactive: 92%
83 | O=C(COc1ccc(Cl)cc1)Nc1ccccc1C(=O)OCc1cc(=O)n2ccsc2n1 | inactive: 92%
84 | O=C(NCCSCc1c(F)cccc1Cl)C1CCN(S(=O)(=O)Cc2ccccc2)CC1 | inactive: 68%
85 | COc1ccccc1CNC(=O)CN1C(=O)CSc2c1c(C)nn2-c1ccccc1 | inactive: 101%
86 | Cc1cc(C)c2c(=O)c3c(oc2c1)C(=O)N(Cc1ccc(F)cc1)C3c1cccc(O)c1 (stereo not drawn) | active: 52%
87 | CCc1ccc(CSc2nc(-c3ccccc3OC)nc3c2Cc2c(CO)cnc(C)c2O3)cc1 | inactive: 90%
88 | CCCn1c(=N)c(C(=O)NCc2cccnc2)cc2c(=O)n3cc(C)ccc3nc21 | inactive: 67%

— PubChem BioAssay AID463173 (ICCB-Longwood Screening Facility, Harvard Medical School, 2010)
